Results reported in PubChem BioAssay AID686971 (National Center for Advancing Translational Sciences (NCATS), 2013).
The campaign covered roughly 360,000 compounds. About 7,500 (2.1%) were called active. Inconclusive means that the source gave no clear call. Such entries were picked first, then a sample of the others. Calls follow the shape of the dose curve; as a rule, active = well fitted cell-killing curve with a large enough effect; inconclusive = small, poorly fitted or top-dose-only effect, or effect the other way, or another doubt; inactive = no such curve, though single readings can be large or run the other way. No potency is given beside an inconclusive call; the fits are too rough.
Potency is read from the fitted curve at half-maximal effect; tags tell the direction and shape of the fitted curve.

Test: qHTS for induction of synthetic lethality in tumor cells producing 2HG: qHTS for the HT-1080-IDH1KD cell line;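 as to activity, negative = toxicity: 0% = DMSO wells and -100% = cell-free medium wells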
Details: HT-1080 IDH1 knockdown viability, ATP luminescence, 48 h; activity, negative = toxicity: at 46.1 µM (top of the series) unless noted
How it was run: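 Cytotoxicity counter-line: IDH1KD HT-1080, 48 h, CellTiter-Glo. Curves classed by r2, magnitude and activity.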
In the case of COc1ccc(N2C(=O)C(Cl)=C(Oc3cccc(OC)c3)C2=O)cc1, the Potency is reported as active: 20.6 µM.
With COc1cc2cc(C(c3nnnn3Cc3ccc(F)cc3)N3CCCCCC3)c(=O)[nH]c2cc1OC (stereo not drawn) the Potency was inconclusive [cytotoxic, single point].
With COc1cccc(/C=N/NC(=O)C(=O)NCc2ccco2)c1O the Potency was active: 7.08 µM.
For CCn1cc(C(=O)NCc2ccc3c(c2)OCO3)c(=O)c2cc(F)c(N3CCN(C(=O)c4ccco4)CC3)cc21, the Potency was active: 18.4 µM.
In the case of COc1ccc2cc1Oc1ccc(cc1)CC1c3c(cc(OC)c4c3Oc3cc5c(cc3O4)CCNC5C2)CCN1C (stereo not drawn), the Potency is reported as active: 18.4 µM.
With CCN(Cc1ccccc1)S(=O)(=O)c1ccc(C(=O)N(CCCN(C)C)c2nc3ccc(F)cc3s2)cc1 the Potency was inconclusive [cytotoxic, single point].
In the case of O=C(CCCC(=O)NN=Cc1ccc(Cl)cc1Cl)NN=Cc1ccc(Cl)cc1Cl, the Potency is reported as “inactive”.
In the case of COc1cc(-c2ccc3cc(OC)c(OC)c(OC)c3c2)cc(OC)c1OC, the Potency is reported as inconclusive [cytotoxic, single point].
In the case of O=C(O)C1CCCCN1C(=O)c1ccc(S(=O)(=O)N2CCCCCC2)cc1 (stereo not drawn), the Potency is reported as “inactive”.
In the case of O=C(O)c1ccccc1C(=O)NNc1ccc(F)cc1F, the Potency is reported as inconclusive [cytotoxic, single point].
With COc1ccc(-c2csc3ncnc(N4CCN(c5ccccc5)CC4)c23)cc1 the Potency was inconclusive [cytotoxic, single point].
For CCCn1c(SCC(=O)Nc2nc3ccccc3s2)nc2c1c(=O)n(C)c(=O)n2C, the Potency was “inactive”.
For CCC(C)(C)c1ccc(OCCCC[n+]2ccccc2)c(C(C)(C)CC)c1, the Potency was inconclusive [cytotoxic, single point].
In the case of CC(C)Oc1ccc(CN2CCCC(CO)(Cc3ccc(F)cc3)C2)cc1 (stereo not drawn), the Potency is reported as active: 29.1 µM.
For Cc1cc(C(=O)CSc2nc(N)cc(N)n2)c(C)n1-c1cccc(C(F)(F)F)c1, the Potency was “inactive”.
With O=C(c1ccc(S(=O)(=O)Cc2ccccc2F)c([N+](=O)[O-])c1)N1CCCC1 the Potency was inconclusive [cytotoxic, single point].
For COc1ccc(C2CC3(CC(C)(C)NC(SC)=N3)Oc3cc(O)cc(C)c32)cc1 (stereo not drawn), the Potency was inconclusive [cytotoxic, partial curve].
With Cc1ccc(N2CC(C(=O)Nc3ccc(S(=O)(=O)Nc4nccc(C)n4)cc3)CC2=O)cc1 (stereo not drawn) the Potency was “inactive”.
In the case of CCN1CCN(S(=O)(=O)c2ccc(Cl)c(C(=O)Nc3cc(Cl)ccc3N3CCOCC3)c2)CC1, the Potency is reported as inconclusive [cytotoxic, single point].
With CC(C)N(Cc1nc(-c2ccc(Cl)cc2)no1)C(=O)c1cccs1 the Potency was inconclusive [cytotoxic, single point].
In the case of CC1(C)CC(=O)CC2(C1)NCC(c1ccccc1Cl)c1c2[nH]c2ccccc12 (stereo not drawn), the Potency is reported as inconclusive [cytotoxic, single point].
For Cc1[nH]c2ccccc2c1C(C#N)(C#N)C1C(=O)c2ccccc2C1=O, the Potency was active: 25.9 µM.
With Cc1ccccc1-c1nc(CS(=O)CC(=O)NCCN2CCN(Cc3ccccc3)CC2)c(C)o1 (stereo not drawn) the Potency was inconclusive [cytotoxic, single point].
With CC1=C(C)CC(C(=O)NCc2ccccn2)C(C(=O)O)C1 (stereo not drawn) the activity, negative = toxicity was inconclusive: 30.1%.
For CCN1CCN(C(=O)CCc2nnc(CCc3ccccc3OC)o2)[C@@H](C)C1=O, the Potency was “inactive”.
In the case of Cc1ccc2c(c1)[C@@H]1CN(C)CC[C@@H]1N2S(=O)(=O)c1ccc(F)cc1, the Potency is reported as “inactive”.
For CCOC(=O)c1c(N2C(=O)C=CC2=O)sc(C)c1C, the Potency was active: 5.01 µM.
In the case of CC(=O)Nc1ccc(-c2ccnc3c2CC(C)(C(=O)Nc2ccc4c(c2)OCO4)O3)cc1 (stereo not drawn), the Potency is reported as inconclusive [cytotoxic, partial curve].
With CCc1nnc(NS(=O)(=O)c2ccc(NCc3ccccc3O)cc2)s1 the Potency was “inactive”.
With COc1ccc(NC(=O)C2Cc3c(-c4ccccc4Oc4ccccc4)ccnc3O2)cn1 (stereo not drawn) the Potency was “inactive”.
With CCOC(=O)C1(C)NC(c2cccs2)C2C(=O)N(c3ccccc3)C(=O)C21 (stereo not drawn) the Potency was “inactive”.
For c1ccc(N2CCOCCOCCOCCOCCOCC2)cc1, the Potency was “inactive”.
For COc1ccc(C2CC(c3ccc(C(F)(F)F)cc3)=NN2c2ccc(S(N)(=O)=O)cc2)cc1 (stereo not drawn), the Potency was inconclusive [cytotoxic, single point].
For CCCN1CCC(CCOc2ccccc2)(C(=O)OCC)CC1, the Potency was “inactive”.
In the case of COc1cc(C(=O)Nc2nnc(-c3sccc3C)s2)cc(OC)c1OC, the Potency is reported as active: 14.6 µM.
For CCOC(=O)CN=C1CC(C)(C)CC2=C1Sc1ncnc(N(C)C)c1N2, the Potency was inconclusive [cytotoxic, single point].
With COc1ccc(NC(=O)CSc2nncn2C)c([N+](=O)[O-])c1 the Potency was “inactive”.
For Cc1c(C(=O)NCCC#N)sc(=O)n1Cc1ccc(F)cc1, the Potency was “inactive”.
With CCOc1ccc(C2NC(=O)C(C#N)=C(S)N2c2cccc(C)c2)cc1OC (stereo not drawn) the Potency was “inactive”.
In the case of CCOC(=O)c1c(C)[nH]c(C(=O)COC(=O)C2(C)CC2(Cl)Cl)c1C (stereo not drawn), the Potency is reported as inconclusive [cytotoxic, single point].
With Cc1ccc(O)c(-c2cc(C(=O)NCc3ccc4c(c3)OCO4)[nH]n2)c1 the Potency was “inactive”.
With NS(=O)(=O)c1ccc(S(=O)(=O)N2CCN(C3CCCC3)CC2)cc1 the Potency was inconclusive [rising, single point].
In the case of CC(C)c1ccc(-n2cccc2/C=C2/C(=N)N3C=CSC3=NC2=O)cc1, the Potency is reported as inconclusive [cytotoxic, single point].
In the case of Clc1cccc(CNc2ccn3nc(-c4cccc(OCc5ccccc5)c4)cc3n2)c1, the Potency is reported as active: 9.2 µM.
In the case of CCc1ccc2c(c1)CCCN2C(=O)c1ccccc1C(=O)O, the Potency is reported as inconclusive [cytotoxic, single point].
With CCCCCOc1ccc(CSc2ncn[nH]2)cc1 the Potency was inconclusive [cytotoxic, single point].
For Clc1ccc2nc(CSCc3ccccc3)cn2c1, the Potency was “inactive”.
For O=C(Cn1nnc(-c2cccs2)n1)Nc1ccccc1C(F)(F)F, the Potency was inconclusive [cytotoxic, single point].
In the case of CCOC(=O)c1sc2c(c1C)C(c1cccs1)C1=C(CCCC1=O)N2 (stereo not drawn), the Potency is reported as inconclusive [cytotoxic, single point].
In the case of CC(C)(C)[C@H]1CCC(=O)N([C@H](CN=[N+]=[N-])Cc2ccccc2)CC1, the Potency is reported as “inactive”.
In the case of CN(CC1COc2ccccc2O1)C(=O)c1cccc(S(=O)(=O)N2CCCC2)c1 (stereo not drawn), the Potency is reported as inconclusive [cytotoxic, single point].
With Cc1ccc(S(=O)(=O)N2C(c3ccc(Cl)c(Cl)c3)CC=C(C(=O)O)C2c2cccc(Cl)c2)cc1 (stereo not drawn) the Potency was inconclusive [cytotoxic, single point].
For CC(C)NC(=O)c1ccc(N(Cc2ccccc2)S(C)(=O)=O)cc1, the Potency was “inactive”.
In the case of COCCN(CCOC)C(=O)Nc1ccc(Cl)cc1, the activity, negative = toxicity is reported as inconclusive: 30.1%.
With CC(C)[C@H](NC(=O)Nc1ccc(Oc2ccccc2)cc1)C(=O)O the Potency was “inactive”.
For Cc1[nH]n(-c2ccccc2)c(=O)c1/C=N/Nc1nncc(-c2ccccc2)n1, the Potency was active: 0.794 µM.
In the case of CCOc1cc(C(=O)N[C@@H](C)C(=O)N2CCC3(CC2)NCCc2[nH]cnc23)cc(OCC)c1OCC, the Potency is reported as “inactive”.
For CCOC(=O)Cc1c(C)nc2c(-c3cccc(Br)c3)c[nH]n2c1=O, the Potency was inconclusive [cytotoxic, partial curve].
For O=C(c1ccc2c(c1)OCO2)N(Cc1cccs1)C1(C(=O)NC2CCCCC2)CCCCC1, the Potency was inconclusive [cytotoxic, single point].
For CC(C)CC(COCc1ccc([N+](=O)[O-])cc1)N1CCN(C(=O)c2ccc(C(F)(F)F)cc2)CCC1=O (stereo not drawn), the Potency was “inactive”.
In the case of COc1ccccc1N(CC(=O)N/N=C/c1ccc(C(=O)O)cc1)S(=O)(=O)c1ccc(C)cc1, the Potency is reported as “inactive”.
With COc1ccc(NC(=S)N(CCc2c(C)[nH]c3ccc(C)cc23)Cc2cccs2)cc1 the Potency was inconclusive [cytotoxic, single point].
In the case of COc1ccc(-c2cc(C(=O)N(C)CC(=O)Nc3cccc(F)c3)c3ccccc3n2)cc1, the Potency is reported as inconclusive [cytotoxic, single point].
With N=c1ccn(Cc2ccc(Cl)cc2)cc1 the Potency was “inactive”.
For COC(=O)c1ccc(CSc2nc3ccc(S(N)(=O)=O)cc3[nH]2)cc1, the Potency was “inactive”.
In the case of CC(=O)Nc1ccc(S(=O)(=O)N(C)S(=O)(=O)c2ccc(F)cc2)cc1, the Potency is reported as inconclusive [cytotoxic, single point].
For CN1CCN(C2=C(Cl)C(=O)N(c3ccc(Cl)c(Cl)c3)C2=O)CC1, the Potency was inconclusive [cytotoxic, single point].
In the case of CCNc1nc(NC(C)(C)C)nc(SC(C(C)=O)C(C)=O)n1, the Potency is reported as inconclusive [cytotoxic, partial curve].
For CC(C)[C@H](CO)Nc1nc(NCc2ccc(S(N)(=O)=O)cc2)c2ncn(C(C)C)c2n1, the Potency was inconclusive [cytotoxic, single point].
With O=C(CSc1nnc(Cn2cnc3ccccc32)o1)Nc1cccc2ccccc12 the Potency was “inactive”.
In the case of S=C(NCCC1=CCCCC1)Nc1ccccc1, the Potency is reported as inconclusive [cytotoxic, single point].
With O=C(c1ccc(Cl)c(S(=O)(=O)N2CCc3ccccc32)c1)N1CCN(c2ccccc2O)CC1 the Potency was inconclusive [cytotoxic, partial curve].
With Cc1cccc(NC(=O)c2ccc(NC(=O)CC3SC(N4CCCC4)=NC3=O)cc2)n1 (stereo not drawn) the Potency was “inactive”.
